According to publication PMC4336329 (PLoS ONE, 2015):
The whole screen tested about 310,000 compounds, of which about 2,200 (0.71%) showed an effect of 50% or more. The effect is printed as a negative number. This is one part of the list.

Target: human ether-à-go-go-related gene (hERG) potassium channel (human, UniProt Q12809)
Assay: primary screen, population patch clamp on CHO cells stably expressing hERG

Sequence of human ether-à-go-go-related gene (hERG) potassium channel (Q12809 whole entry, looked up): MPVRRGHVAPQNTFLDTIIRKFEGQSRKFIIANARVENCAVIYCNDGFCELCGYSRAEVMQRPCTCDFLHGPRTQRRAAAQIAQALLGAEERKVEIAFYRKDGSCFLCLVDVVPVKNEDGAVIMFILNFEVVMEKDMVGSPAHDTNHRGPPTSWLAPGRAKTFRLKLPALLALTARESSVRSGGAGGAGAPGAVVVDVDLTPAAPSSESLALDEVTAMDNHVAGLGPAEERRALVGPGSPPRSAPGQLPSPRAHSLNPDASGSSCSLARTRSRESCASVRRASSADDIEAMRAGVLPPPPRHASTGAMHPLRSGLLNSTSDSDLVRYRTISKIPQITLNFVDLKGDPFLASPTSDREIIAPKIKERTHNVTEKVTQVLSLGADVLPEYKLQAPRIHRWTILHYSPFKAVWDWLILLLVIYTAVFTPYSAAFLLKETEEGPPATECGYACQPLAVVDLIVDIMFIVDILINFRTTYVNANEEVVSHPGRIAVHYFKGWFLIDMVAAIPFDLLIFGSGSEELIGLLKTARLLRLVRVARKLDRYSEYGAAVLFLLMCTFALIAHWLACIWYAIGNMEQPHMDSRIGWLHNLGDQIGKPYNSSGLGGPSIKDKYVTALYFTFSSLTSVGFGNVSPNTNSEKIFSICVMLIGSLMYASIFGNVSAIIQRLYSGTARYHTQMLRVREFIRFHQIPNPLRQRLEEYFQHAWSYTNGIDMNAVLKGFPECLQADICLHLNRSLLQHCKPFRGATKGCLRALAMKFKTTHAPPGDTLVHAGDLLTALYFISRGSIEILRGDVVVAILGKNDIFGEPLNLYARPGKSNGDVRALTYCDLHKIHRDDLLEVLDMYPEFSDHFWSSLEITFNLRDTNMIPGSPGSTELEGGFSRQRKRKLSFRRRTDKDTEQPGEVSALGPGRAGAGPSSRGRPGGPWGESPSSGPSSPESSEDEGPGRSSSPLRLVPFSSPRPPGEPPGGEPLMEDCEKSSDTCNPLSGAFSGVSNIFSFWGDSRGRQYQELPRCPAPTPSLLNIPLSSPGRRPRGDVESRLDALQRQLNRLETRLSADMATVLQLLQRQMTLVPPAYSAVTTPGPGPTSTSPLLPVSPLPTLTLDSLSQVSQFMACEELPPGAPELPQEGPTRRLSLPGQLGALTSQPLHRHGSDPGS

First: COC(=O)c1ccc(CSc2nnc3n(Cc4ccccc4OC)c(=O)c4ccccc4n23)o1
Second: CCOc1ccc(Cc2nnc(SCC(=O)Nc3ccccc3)n(N)c2=O)cc1
The “hERG current change (%, negative = inhibition) at 1uM” value of the first is higher: 8.64% for the first, -1.29% for the second.

Going from `Cc1ccc(C(=O)NNS(=O)(=O)c2ccccc2[N+](=O)[O-])cc1` to `Cc1ccc(S(=O)(=O)N2CCN(Cc3ccccc3)CC2)cc1`, the “hERG current change (%, negative = inhibition) at 1uM” value rises from 5.9% to 10%.

First: CCn1cc(CN2CCC(n3nccc3NC(=O)C(OC)c3ccccc3)CC2)cn1 (centres unmarked)
Second: Cc1nn(C)c(C)c1CNC(=O)c1cnn2c1NC(c1ccccc1)CC2C(F)(F)F (centres unmarked)
The “hERG current change (%, negative = inhibition) at 1uM” value of the first is higher: 11.7% for the first, 6.62% for the second.

Going from `CCCCN(CC)CCCNC(=O)C1CCN(c2ncnc3c2sc2cccc(F)c23)CC1` to `CCOCCCNC(=O)C1CCN(S(=O)(=O)c2ccc3nc4c(c(C(=O)O)c3c2)CCCCC4)CC1`, the “hERG current change (%, negative = inhibition) at 1uM” value rises from -38.9% to 55.5%.

Compared with `Cc1ccc(S(=O)(=O)NCC(=O)N(CC(=O)NCC2CCCO2)CC2CCCO2)cc1` (centres unmarked), `Cc1ccc(N(CC(=O)NC2CCCC2)C(=O)c2c(C)noc2C)cc1C` is higher in “hERG current change (%, negative = inhibition) at 1uM” value: 11.6% for the first, 17.5% for the second.

Compared with `N#CCCCSc1nnnn1-c1cccc(Cl)c1`, `CCCOc1ccc(-c2nnn(CC(=O)OCC)n2)cc1` is lower in “hERG current change (%, negative = inhibition) at 1uM” value: 12.3% for the first, 0.429% for the second.

Compared with `Cc1ccc(/C=N/NC(=O)CCCOc2ccc(Cl)cc2Cl)cc1[N+](=O)[O-]`, `Cc1c(Cl)c([N+](=O)[O-])nn1Cc1ccc(C(=O)N/N=C\c2ccccn2)o1` is lower in “hERG current change (%, negative = inhibition) at 1uM” value: 5.79% for the first, -1.35% for the second.

Going from `C#CCNC(=O)C1=C[C@H](c2ccc(C(F)(F)F)cc2)C[C@H](OCCCCO)O1` to `Cc1ccc(NC(=O)c2cccc(C(F)(F)F)c2)cc1NC(=O)c1[nH]cnc1C(N)=O`, the “hERG current change (%, negative = inhibition) at 1uM” value rises from 6.56% to 10.5%.

First: CC1CCN(CC#CCOc2ccc(Cl)cc2)CC1.O=C(O)C(=O)O
Second: O=C(O)C(=O)O.OC(CNC1CCCc2ccccc21)COc1ccc2ccccc2c1 (centres unmarked)
The “hERG current change (%, negative = inhibition) at 1uM” value of the first is higher: 15.7% for the first, -15.8% for the second.

Going from `C=CCc1cccc(/C=N/NC(=O)CCC(=O)Nc2ccc(F)cc2)c1O` to `Cc1cc(N2CCN(C)CC2)nc2ccc(NC(=O)CCC(=O)NCc3ccco3)cc12`, the “hERG current change (%, negative = inhibition) at 1uM” value falls from 12.6% to 4.12%.

First: C=CCc1ccccc1OCCCCN1CCCC1
Second: O=C(COc1ccc2ccccc2c1Br)N1CCOCC1
The “hERG current change (%, negative = inhibition) at 1uM” value of the first is lower: -7.92% for the first, -3.24% for the second.

First: CCN(c1cccc(C)c1)S(=O)(=O)c1cccc(C(=O)O)c1
Second: Cc1ccc(NS(=O)(=O)c2cccc(C(=O)N3CCN(C(=O)c4ccco4)CC3)c2)cc1
The “hERG current change (%, negative = inhibition) at 1uM” value of the first is higher: 8.43% for the first, -0.237% for the second.

Going from `O=C(N1CCNCC1)N1CCOCC1` to `N#Cc1cccc(NC(=O)COC(=O)CCc2ccc(S(=O)(=O)N3CCOCC3)cc2)c1`, the “hERG current change (%, negative = inhibition) at 1uM” value falls from -5.61% to -35%.

Going from `CC(=O)NC1CC2CCCC(C1)N2C(=O)Nc1ccccc1` (centres unmarked) to `CC(C)(C)OC(=O)N[C@@H](Cc1ccccc1)C(=O)NCC1CCC(C(=O)N[C@@H](CCC(N)=O)C(=O)O)CC1` (some centres unmarked), the “hERG current change (%, negative = inhibition) at 1uM” value rises from 11.4% to 14.8%.

Going from `Cc1ccc(S(=O)(=O)N2CCN(C(=O)COc3ccc(C)nc3[N+](=O)[O-])CC2)c(C)c1` to `COc1cc(S(=O)(=O)N2CCOCC2)ccc1NC(=O)COC(=O)c1ccccn1`, the “hERG current change (%, negative = inhibition) at 1uM” value falls from 6.8% to 0.143%.

First: CCN(CC)c1ccc(/C=N/NC(=O)c2ccoc2C)cc1
Second: COc1cccc(/C=N\NC(=O)c2ccc(Cn3cc(Br)c([N+](=O)[O-])n3)o2)c1O
The “hERG current change (%, negative = inhibition) at 1uM” value of the first is lower: 2.4% for the first, 12.8% for the second.

Going from `CONc1nc(NC(C)(C)C)nc(OCC#N)n1` to `CCOC(=O)c1nc(NCc2ccccc2)sc1C`, the “hERG current change (%, negative = inhibition) at 1uM” value rises from 7.46% to 16.6%.

Going from `CC(=O)Nc1ccccc1OCC(=O)c1ccc2c(c1)OCO2` to `COc1ccc(OCCCC(=O)OC(C)C(=O)Nc2cccc(C(C)=O)c2)cc1` (centres unmarked), the “hERG current change (%, negative = inhibition) at 1uM” value rises from 5.93% to 9.8%.

Compared with `CCN=C1NN=C(c2c[nH]c3ccccc23)CS1`, `COc1ccc(NC(=O)c2cc3c([nH]c4ccccc43)c(C)n2)cc1` is higher in “hERG current change (%, negative = inhibition) at 1uM” value: 1.9% for the first, 13.9% for the second.

First: Cc1nc2ccccc2c(=O)n1NC(=O)/C=C/c1ccc(Br)cc1
Second: CC(C)Oc1ccc(CNC(=O)Oc2ccccc2)cc1
The “hERG current change (%, negative = inhibition) at 1uM” value of the first is lower: 2.25% for the first, 19.8% for the second.

Going from `CN(C)C(=O)c1ccc(NC(=O)COC(=O)/C=C/c2cccs2)cc1` to `COc1ccc(S(=O)(=O)N(CC(=O)Nc2ccc(S(=O)(=O)N3CCOCC3)cc2)Cc2ccc(F)cc2)cc1`, the “hERG current change (%, negative = inhibition) at 1uM” value rises from 11.3% to 11.7%.

Going from `O=C(COc1cc2oc(=O)c3c(c2cc1Cl)CCC3)NCc1ccccn1` to `Cc1ccc(CCNC(=O)C23C[C@H]4C[C@@H](C2)CC(n2nnc(C)n2)(C4)C3)cc1`, the “hERG current change (%, negative = inhibition) at 1uM” value rises from 2.14% to 5.5%.
